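Each compound was tested at five concentrations against cells in 96-well plates for 48 hours. GI50: concentration for 50% inhibition of growth. TGI: total growth inhibition.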

The assay has as its system NCI-H322M lung. Nature of the assay: DTP human tumour cell line panel, 48 h.
On to `CO[C@@H]1O[C@H](C(=O)c2ccccc2)[C@H]2OC(C)(C)O[C@@H]12`, for which the TGI is over 100 µM. Still for that read-out and setting: for `CN(C)CCNC(=O)Cn1ccc(=O)c2c([N+](=O)[O-])cccc21` the value was over 100 µM; for `O=c1oc2ccccc2[n+]([O-])c1-c1ccccc1`, over 100 µM.

Consider `O=C(N[C@@H](C[Se][Se]C[C@H](NC(=O)c1ccc(Br)cc1F)C(=O)O)C(=O)O)c1ccc(Br)cc1F`, for which the GI50 was over 100 µM and the TGI was over 100 µM.

The compound `O=c1cc(/C=C/c2ccccc2)[nH]c2cc3c(cc12)OCO3` yielded a TGI of 25.5 µM. Regarding `C=C1C[C@@H]2CC[C@@]34C[C@H]5O[C@H]6[C@@H](O3)[C@H]3O[C@H](CC[C@@H]3O[C@H]6[C@@H]5O4)CC(=O)C[C@@H]3[C@@H](OC)[C@@H](C[C@H](O)CN)O[C@H]3C[C@H]3O[C@@H](CC[C@@H]1O2)C[C@@H](C)C3=C`, the GI50 is under 0.01 µM and the TGI was over 100 µM. For `Oc1[nH]c2ccccc2c1N=NC(=S)Nc1ccc(Cl)cc1`, the TGI is over 100 µM. Same read-out and setting: as for `C/C(=N/NC(=O)C[N+](C)(C)C)C(CN(C)C)C(=O)Nc1ccccc1` (stereo not drawn), the figure is over 100 µM. On the same count and under the same terms, as for `COC1CC(OC2CCC3(C)C(=CCC4C3C(OC(C)=O)C(OC(=O)CC(C)C)C3(C)C(C(C)=O)CCC43O)C2)OC(C)C1OC1CC(OC)C(OC2CC(OC)C(OC3OC(C)C(OC4OC(CO)C(O)C(O)C4O)C(OC)C3O)C(C)O2)C(C)O1` (stereo not drawn), the figure is over 75 µM; as for `CCOC(=O)C1CCC(=O)N1C(=O)c1ccccc1` (stereo not drawn), over 100 µM; as for `CSC1=Nc2ccccc2N=C(c2ccc(Cl)cc2)C1`, over 100 µM. On to `C=C1C(=O)O[C@H]2[C@H]1CC/C(C=Nc1c(N)cc(C(F)(F)F)cc1Br)=C\CC[C@@]1(C)O[C@@H]21`, for which the GI50 was 2.98 µM and the TGI was found to be 12.7 µM. For `CC(=O)OCC1OC(N2C(=O)C(=O)c3ccccc32)C(OC(C)=O)C(OC(C)=O)C1OC(C)=O` (stereo not drawn), the TGI is over 100 µM. On the same count and under the same terms, for `Cc1c(C(=O)O)oc2ccc([N+](=O)[O-])cc12` the value was over 100 µM. Take `COc1ccc(/C(=N\NC(=S)NN)C(c2ccc(OC)cc2)C2C(=O)Oc3ccccc32)cc1` (stereo not drawn): the GI50 is over 100 µM and the TGI was over 100 µM. The compound `CCOC(=O)c1nc2cc(C(F)(F)F)ccc2nc1Nc1ccc(C(=O)NC(C(=O)OCC)C(=O)OCC)cc1` showed a TGI of over 100 µM. Still for that read-out and setting: for `CC(=O)/C(=C/c1ccccc1F)C(=O)c1ccccc1` the value was over 100 µM; for `C=Cc1ccccc1C1(O)C=CC(OC)(OC)C=C1`, 23.6 µM; for `CCOC(=O)/C=C(\C(=O)OCC)n1ccc(=O)n(Cc2cn(COCCOC(C)=O)nn2)c1=O`, over 100 µM. Same read-out and setting: as for `CC1(C)CC2C(=O)c3ccccc3NC2c2ccccc21` (stereo not drawn), the figure is over 100 µM.

For `CCOC(=O)c1nnsc1NN`, the TGI is over 100 µM. For the compound `Cc1ccc(-c2nc3nc(-c4ccc(F)cc4)nc(N4CCCNCC4)c3o2)cc1`, the GI50 is 1.61 µM and the total growth inhibition concentration (TGI) amounted to 2.96 µM. In turn, `C#CCN(Cc1ccc2nc(OC)c(OC)nc2c1)c1cc(OC)c(OC)c(OC)c1` showed a TGI of over 100 µM. Still for that read-out and setting: as for `CCOC(=O)NC(=O)c1cn(CCN2CCN(C(=O)CCCCCCCCCCC(=O)N3CCN(CCn4cc(C(=O)NC(=O)OCC)c(=O)[nH]c4=O)CC3)CC2)c(=O)[nH]c1=O`, the figure is over 100 µM. On to `O=c1c(F)cn(Cc2ccccc2CCl)c(=O)n1Cc1ccccc1CCl`, for which the GI50 is 2.49 µM and the TGI is 7.11 µM. In turn, `COC(=O)C(/C(=N\O)C(=O)Nc1cccc(Cl)c1C)c1cnc2ccccc2n1` (stereo not drawn) showed a TGI of over 100 µM. Same read-out and setting: for `CC(=O)c1ccc2c(c1)CC1(C2)Cc2ccccc2C1=O` (stereo not drawn) the value was over 100 µM; for `CCOC(=O)C1SC(=Nc2ccc(Cl)cc2)N=C1C` (stereo not drawn), 44.6 µM; for `Cc1c2c(OCC3CCCCO3)nn(C)c(=O)c2c(C)n1-c1ccccc1` (stereo not drawn), 33.1 µM. `CCNC(=O)c1noc(-c2cc(C(C)C)c(O)cc2O)c1-c1ccc(CN2CCOCC2)cc1`: the GI50 is 10.8 µM and the TGI is over 100 µM.

`CCOC(=O)C#Cc1ccccc1` yielded a TGI of 36.3 µM. The same measure, in the same setting: for `O=C(/C=C/c1ccccc1)CC(=O)CCC(=O)Nc1ccc(Cl)cc1` the value was over 100 µM. On to `Oc1ccccc1-c1nn(CNc2ccccc2Cl)c(=S)o1`, for which the GI50 was over 100 µM and the TGI is over 100 µM. In the case of `COc1ccc(COCC[C@H](C)OC2OC(CO[Si](C)(C)C(C)(C)C)C(OC(=O)CCCN=[N+]=[N-])C(OC(=O)CCCN=[N+]=[N-])C2OC(=O)CCCN=[N+]=[N-])cc1` (stereo partly drawn), the TGI was over 100 µM. The same measure, in the same setting: for `COCCOCCOC1=CC(=O)c2c(O)ccc(O)c2C1=O` the value was 2.94 µM.

As usually defined, the TGI is the concentration giving total growth inhibition. As a reminder, the GI50 is the concentration giving 50% growth inhibition.

The record behind these values is PubChem BioAssay (NCI).
